Source: the supplement of paper PMC7125110
± gives the standard error. This sample is rich in variants without activity.

B1: glmS ribozyme (parent)
chain: AUAAAAGCGCCAGAACUACAGAAAUGUAGUUGACGAGGAGGAGGUUUAUCGAAUUUUCGGCGGAUGCCUCCAAA

What was measured:
Details in all cases: with glucosamine-6-phosphate
[1] = variants of: B1; assay: self-cleavage kobs at 40 uM GlcN6P; higher = faster cleavage; RNA array
Summary of the method: (§1)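 Barcoded ribozyme variants, transcribed in situ by E. coli RNA polymerase on sequenced MiSeq chips, were followed via a hybridised Cy3 probe at 37 °C. Glucosamine-6-phosphate ranged from 40 μM to 10 mM in HEPES/KCl/Mg(OAc)2 buffer. kobs came from decay fits to per-tile medians, and kcat and KM from weighted Michaelis–Menten fits.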

[2] = variants of: B1; assay: self-cleavage kobs at 10000 uM GlcN6P; higher = faster cleavage; RNA array
Summary of the method: as §1

[3] = variants of: B1; assay: self-cleavage kobs at 2500 uM GlcN6P; higher = faster cleavage; RNA array
Summary of the method: as §1

[4] = variants of: B1; assay: self-cleavage kobs at 640 uM GlcN6P; higher = faster cleavage; RNA array
Summary of the method: as §1

[5] = variants of: B1; assay: self-cleavage kobs at 160 uM GlcN6P; higher = faster cleavage; RNA array
Summary of the method: as §1

| Variant | self-cleavage kobs at 40 uM GlcN6P [1] [s⁻¹] | self-cleavage kobs at 10000 uM GlcN6P [2] [s⁻¹] | self-cleavage kobs at 2500 uM GlcN6P [3] [s⁻¹] | self-cleavage kobs at 640 uM GlcN6P [4] [s⁻¹] | self-cleavage kobs at 160 uM GlcN6P [5] [s⁻¹] |
| --- | --- | --- | --- | --- | --- |
| G32U A36G U45C C68G | < 1e-05 |  |  |  |  |
| G32U A39G U57G G62A G66U C67U C70G C71U | < 1e-05 | < 1e-05 |  |  |  |
| G32U A48U C71A | < 1e-05 | < 1e-05 |  |  |  |
| G32U A52G C68G | 0.000277 ± 9.2e-05 | 0.000398 ± 9.5e-05 |  |  |  |
| G32U C34G C67U | < 1e-05 |  |  |  |  |
| G32U C34G C68G | 4.91e-05 ± 1.8e-05 |  |  |  |  |
| G32U C34U A42C | < 1e-05 |  | < 1e-05 |  |  |
| G32U C34U U55A | < 1e-05 |  |  |  |  |
| G32U G35C | < 1e-05 | < 1e-05 |  | < 1e-05 | < 1e-05 |
| G32U G35U A48U C67G C71G | < 1e-05 | < 1e-05 |  |  |  |
| G32U G35U A64U | < 1e-05 | < 1e-05 |  |  |  |
| G32U G37C G40C C68A | < 1e-05 | < 1e-05 |  |  |  |
| G32U G38A G44A U65A | < 1e-05 |  |  |  |  |
| G32U G38C U65C C70G | < 1e-05 | < 1e-05 |  |  |  |
| G32U G44A | < 1e-05 |  |  |  |  |
| G32U G44U U45A | < 1e-05 |  |  |  |  |
| G32U G63U C71A | < 1e-05 |  |  |  |  |
| G32U U45A | 0.000103 ± 3.9e-05 |  | 0.000762 ± 0.00034 | 0.000279 ± 6.8e-05 | 9.56e-05 ± 2.1e-05 |
| G32U U46G C70A | < 1e-05 |  |  |  |  |
| G32U U47C G51A C67A | < 1e-05 |  |  |  |  |
| G32U U49C | < 1e-05 |  |  | < 1e-05 | < 1e-05 |
| G32U U55A U65C | < 1e-05 |  |  |  |  |
| A33C A36U | < 1e-05 |  | < 1e-05 |  |  |
| A33C A39U U54G C61U | < 1e-05 |  |  |  |  |
| A33C A48U C58G | < 1e-05 | < 1e-05 |  | < 1e-05 |  |
| A33C C34G C71U | < 1e-05 |  |  |  |  |

| Variant | self-cleavage kobs at 40 uM GlcN6P [1] [s⁻¹] | self-cleavage kobs at 10000 uM GlcN6P [2] [s⁻¹] | self-cleavage kobs at 2500 uM GlcN6P [3] [s⁻¹] | self-cleavage kobs at 640 uM GlcN6P [4] [s⁻¹] | self-cleavage kobs at 160 uM GlcN6P [5] [s⁻¹] |
| --- | --- | --- | --- | --- | --- |
| A33C C50U | < 1e-05 | < 1e-05 | < 1e-05 | < 1e-05 |  |
| A33C C61U | < 1e-05 | < 1e-05 |  | < 1e-05 | < 1e-05 |
| A33C C61U C71A | < 1e-05 | < 1e-05 |  |  |  |
| A33C C71A | < 1e-05 |  | < 1e-05 | < 1e-05 | < 1e-05 |
| A33C G35A A48C | < 1e-05 | < 1e-05 | < 1e-05 | < 1e-05 | < 1e-05 |
| A33C G35C | < 1e-05 | < 1e-05 |  | < 1e-05 | < 1e-05 |
| A33C G35C C68U | < 1e-05 |  |  |  |  |
| A33C G35U A36G C67U | < 1e-05 | < 1e-05 |  |  |  |
| A33C G37C | < 1e-05 |  | < 1e-05 | < 1e-05 |  |
| A33C G38C G44C G60C G62C | < 1e-05 |  |  |  |  |
| A33C G41C U47C A53G U54C U65G C70U | < 1e-05 | < 1e-05 |  |  |  |
| A33C G43A | < 1e-05 | < 1e-05 |  | < 1e-05 | < 1e-05 |
| A33C G43C | < 1e-05 |  |  |  |  |
| A33C G43U | < 1e-05 | < 1e-05 | < 1e-05 | < 1e-05 | < 1e-05 |
| A33C G44A | < 1e-05 | < 1e-05 | < 1e-05 | < 1e-05 | < 1e-05 |
| A33C G60C | < 1e-05 | < 1e-05 | < 1e-05 | < 1e-05 | < 1e-05 |
| A33C U45G | < 1e-05 |  |  |  | < 1e-05 |
| A33C U49A C61U | < 1e-05 |  | < 1e-05 |  |  |
| A33C U49C | < 1e-05 | < 1e-05 | < 1e-05 | < 1e-05 | < 1e-05 |
| A33C U55C | < 1e-05 |  |  | < 1e-05 | < 1e-05 |
| A33C U57A | < 1e-05 |  |  |  | < 1e-05 |
| A33G A36G G43A C71U | < 1e-05 |  | < 1e-05 | < 1e-05 |  |
| A33G A39G G41U C70G | < 1e-05 |  |  |  |  |
| A33G A39U U56G | < 1e-05 |  | < 1e-05 |  |  |
| A33G A42G G63U A64U | < 1e-05 | < 1e-05 | < 1e-05 |  | < 1e-05 |
| A33G A48U | < 1e-05 | < 1e-05 | < 1e-05 | < 1e-05 |  |

| Variant | self-cleavage kobs at 40 uM GlcN6P [1] [s⁻¹] | self-cleavage kobs at 10000 uM GlcN6P [2] [s⁻¹] | self-cleavage kobs at 2500 uM GlcN6P [3] [s⁻¹] | self-cleavage kobs at 640 uM GlcN6P [4] [s⁻¹] | self-cleavage kobs at 160 uM GlcN6P [5] [s⁻¹] |
| --- | --- | --- | --- | --- | --- |
| A33G A52C | < 1e-05 | < 1e-05 | < 1e-05 |  | < 1e-05 |
| A33G A53G | < 1e-05 |  |  |  | < 1e-05 |
| A33G A64C | < 1e-05 |  |  |  | < 1e-05 |
| A33G C34A | < 1e-05 | < 1e-05 |  |  |  |
| A33G C61G | < 1e-05 | < 1e-05 |  | < 1e-05 | < 1e-05 |
| A33G G35A | < 1e-05 |  |  | < 1e-05 | < 1e-05 |
| A33G G37A G51U A53U A64G | < 1e-05 | < 1e-05 |  |  |  |
| A33G G37A U55A | < 1e-05 |  |  |  |  |
| A33G G40A | < 1e-05 | < 1e-05 | < 1e-05 | < 1e-05 | < 1e-05 |
| A33G G40U | < 1e-05 | < 1e-05 | < 1e-05 | < 1e-05 |  |
| A33G G43C | < 1e-05 | < 1e-05 |  | < 1e-05 |  |
| A33G G51A A52C G62A | < 1e-05 |  |  |  |  |
| A33G G59U U69C | < 1e-05 | < 1e-05 |  |  |  |
| A33G U45G | < 1e-05 | < 1e-05 | < 1e-05 | < 1e-05 | < 1e-05 |
| A33G U46C | < 1e-05 | < 1e-05 | < 1e-05 | < 1e-05 | < 1e-05 |
| A33G U49G | < 1e-05 | < 1e-05 | < 1e-05 | < 1e-05 | < 1e-05 |
| A33G U54A | < 1e-05 | < 1e-05 | < 1e-05 |  |  |
| A33G U55C | < 1e-05 | < 1e-05 | < 1e-05 |  |  |
| A33G U57C | < 1e-05 | < 1e-05 |  | < 1e-05 |  |
| A33U A42G | < 1e-05 | 8.89e-05 ± 3e-05 | 6.02e-05 ± 1.3e-05 |  |  |
| A33U A42U | < 1e-05 |  |  | < 1e-05 |  |
| A33U A42U U46A | < 1e-05 |  |  |  |  |
| A33U A48G A53U U57C | < 1e-05 | < 1e-05 |  |  |  |
| A33U A48G U55A C70U | < 1e-05 |  |  |  |  |
| A33U A52U | < 1e-05 |  |  | < 1e-05 |  |
| A33U A53U A64U | < 1e-05 | < 1e-05 |  |  |  |

| Variant | self-cleavage kobs at 40 uM GlcN6P [1] [s⁻¹] | self-cleavage kobs at 10000 uM GlcN6P [2] [s⁻¹] | self-cleavage kobs at 2500 uM GlcN6P [3] [s⁻¹] | self-cleavage kobs at 640 uM GlcN6P [4] [s⁻¹] | self-cleavage kobs at 160 uM GlcN6P [5] [s⁻¹] |
| --- | --- | --- | --- | --- | --- |
| A33U A64C | < 1e-05 |  |  | < 1e-05 | < 1e-05 |
| A33U C50G C71G | 0.000128 ± 2.3e-05 | 0.0002 ± 4.2e-05 |  |  |  |
| A33U C61G | < 1e-05 | < 1e-05 |  |  |  |
| A33U C61U C70G | < 1e-05 |  |  |  |  |
| A33U G38U G40U | < 1e-05 |  |  |  |  |
| A33U G40A | < 1e-05 |  |  |  |  |
| A33U G40U C61U | < 1e-05 |  |  |  |  |
| A33U G41C | < 1e-05 |  |  |  | < 1e-05 |
| A33U G59C | < 1e-05 |  |  | < 1e-05 |  |
| A33U G59U | < 1e-05 |  | < 1e-05 | < 1e-05 |  |
| A33U G60U | < 1e-05 | < 1e-05 |  | < 1e-05 | < 1e-05 |
| A33U G62U G63A C70U | < 1e-05 | < 1e-05 |  | < 1e-05 | < 1e-05 |
| A33U U45C | < 1e-05 |  | < 1e-05 | < 1e-05 | < 1e-05 |
| A33U U46A U47G | < 1e-05 |  |  |  |  |
| A33U U46G U55A C58U C67A | < 1e-05 |  |  |  |  |
| A33U U56C U57C G60U | < 1e-05 |  | < 1e-05 |  |  |
| A33U U57C | < 1e-05 |  |  | < 1e-05 |  |
| A33U U57C G60C | < 1e-05 |  |  |  |  |
| C34A A36G | < 1e-05 | < 1e-05 | < 1e-05 | < 1e-05 | < 1e-05 |
| C34A A39G A48U C68A | < 1e-05 | < 1e-05 | < 1e-05 |  | < 1e-05 |
| C34A A42C | < 1e-05 | < 1e-05 | < 1e-05 | < 1e-05 | < 1e-05 |
| C34A A42G U54C | < 1e-05 |  |  |  |  |
| C34A A48G | < 1e-05 | < 1e-05 | < 1e-05 | < 1e-05 | < 1e-05 |
| C34A A64U | < 1e-05 | < 1e-05 |  | < 1e-05 | < 1e-05 |
